# This is one part of the list.
# Key:
# Assay in all cases: glycan array binding signal (z-score within array); higher = stronger binding
# Conditions in all cases: glycan notation: IUPAC condensed, linker removed
# Fuc(a1-2)Gal = target: Fuc(a1-2)Gal
# Summary of the method: (§1)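 Arrays were curated from the Consortium for Functional Glycomics database, 3228 in total, and kept only where the protein sequence was available. Binding is expressed as a within-array Z-score. This score was averaged across arrays of the same protein sequence at different concentrations or buffers and across linkers, and negative values can be read as non-binding.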
# Fuc(a1-2)Gal(b1-3)GalNAc = target: Fuc(a1-2)Gal(b1-3)GalNAc
# Summary of the method: as §1
# [1] = target: Fuc(a1-2)Gal(b1-3)GalNAc(b1-3)Gal
# Summary of the method: as §1
# [2] = target: Fuc(a1-2)Gal(b1-3)GalNAc(b1-3)Gal(a1-4)Gal(b1-4)Glc
# Summary of the method: as §1
# [3] = target: Fuc(a1-2)Gal(b1-3)GalNAc(b1-4)[Neu5Ac(a2-3)]Gal(b1-4)Glc
# Summary of the method: as §1
# Fuc(a1-2)Gal(b1-3)GlcNAc = target: Fuc(a1-2)Gal(b1-3)GlcNAc
# Summary of the method: as §1
# [4] = target: Fuc(a1-2)Gal(b1-3)GlcNAc(b1-3)Gal(b1-4)Glc
# Summary of the method: as §1
# [5] = target: Fuc(a1-2)Gal(b1-3)[Fuc(a1-4)]GlcNAc
# Summary of the method: as §1
# Fuc(a1-2)Gal(b1-4)Glc = target: Fuc(a1-2)Gal(b1-4)Glc
# Summary of the method: as §1
# Fuc(a1-2)Gal(b1-4)Glc6S = target: Fuc(a1-2)Gal(b1-4)Glc6S
# Summary of the method: as §1
# Fuc(a1-2)Gal(b1-4)GlcNAc = target: Fuc(a1-2)Gal(b1-4)GlcNAc
# Summary of the method: as §1
# [6] = target: Fuc(a1-2)Gal(b1-4)GlcNAc(b1-3)Gal(b1-4)GlcNAc
# Summary of the method: as §1
# [7] = target: Fuc(a1-2)Gal(b1-4)GlcNAc(b1-3)Gal(b1-4)GlcNAc(b1-3)Gal(b1-4)GlcNAc
# Summary of the method: as §1
# [8] = target: Fuc(a1-2)Gal(b1-4)GlcNAc6S
# Summary of the method: as §1
# [9] = target: Fuc(a1-2)Gal(b1-4)[Fuc(a1-3)]GlcNAc
# Summary of the method: as §1
# [10] = target: Fuc(a1-2)Gal(b1-4)[Fuc(a1-3)]GlcNAc(b1-3)Gal(b1-4)[Fuc(a1-3)]GlcNAc
# Summary of the method: as §1
# [11] = target: Fuc(a1-2)Gal(b1-4)[Fuc(a1-3)]GlcNAc(b1-3)Gal(b1-4)[Fuc(a1-3)]GlcNAc(b1-3)Gal(b1-4)[Fuc(a1-3)]GlcNAc
# Summary of the method: as §1
# Fuc(a1-2)Gal6S(b1-4)Glc = target: Fuc(a1-2)Gal6S(b1-4)Glc
# Summary of the method: as §1
# [12] = target: Fuc(a1-2)Gal6S(b1-4)Glc6S
# Summary of the method: as §1
# [13] = target: Fuc(a1-2)Gal6S(b1-4)GlcNAc
# Summary of the method: as §1
# Fuc(a1-2)[Gal(a1-3)]Gal = target: Fuc(a1-2)[Gal(a1-3)]Gal
# Summary of the method: as §1
# [14] = target: Fuc(a1-2)[Gal(a1-3)]Gal(b1-3)GlcNAc
# Summary of the method: as §1
# [15] = target: Fuc(a1-2)[Gal(a1-3)]Gal(b1-4)Glc
# Summary of the method: as §1
# [16] = target: Fuc(a1-2)[Gal(a1-3)]Gal(b1-4)GlcNAc
# Summary of the method: as §1
# [17] = target: Fuc(a1-2)[Gal(a1-3)]Gal(b1-4)[Fuc(a1-3)]GlcNAc
# Summary of the method: as §1
# [18] = target: Fuc(a1-2)[Gal(a1-4)]Gal(b1-4)GlcNAc
# Summary of the method: as §1
# [19] = target: Fuc(a1-2)[GalNAc(a1-3)]Gal
# Summary of the method: as §1
# [20] = target: Fuc(a1-2)[GalNAc(a1-3)]Gal(b1-3)GlcNAc
# Summary of the method: as §1
# [21] = target: Fuc(a1-2)[GalNAc(a1-3)]Gal(b1-4)Glc
# Summary of the method: as §1
# [22] = target: Fuc(a1-2)[GalNAc(a1-3)]Gal(b1-4)GlcNAc
# Summary of the method: as §1
# [23] = target: Fuc(a1-2)[GalNAc(a1-3)]Gal(b1-4)[Fuc(a1-3)]GlcNAc
# Summary of the method: as §1
# [24] = target: Fuc(a1-2)[GalNAc(a1-4)]Gal(b1-4)GlcNAc
# Summary of the method: as §1
# [25] = target: Fuc(a1-2)[GalNAc(b1-3)]Gal
# Summary of the method: as §1
# Fuc(a1-3)GlcNAc = target: Fuc(a1-3)GlcNAc
# Summary of the method: as §1
# [26] = target: Fuc(a1-3)[Gal(b1-4)]Glc6S
# Summary of the method: as §1
# [27] = target: Fuc(a1-3)[Gal(b1-4)]GlcNAc
# Summary of the method: as §1
# [28] = target: Fuc(a1-3)[Gal(b1-4)]GlcNAc(b1-2)Man(a1-3)[Fuc(a1-3)[Gal(b1-4)]GlcNAc(b1-2)Man(a1-6)]Man(b1-4)GlcNAc(b1-4)GlcNAc
# Summary of the method: as §1
# [29] = target: Fuc(a1-3)[Gal(b1-4)]GlcNAc(b1-2)Man(a1-6)[Gal(b1-4)GlcNAc(b1-2)Man(a1-3)]Man(b1-4)GlcNAc(b1-4)GlcNAc
# Summary of the method: as §1
# [30] = target: Fuc(a1-3)[Gal(b1-4)]GlcNAc(b1-3)Gal(b1-3)[Fuc(a1-4)]GlcNAc
# Summary of the method: as §1
# [31] = target: Fuc(a1-3)[Gal(b1-4)]GlcNAc(b1-4)Gal(b1-4)[Fuc(a1-3)]GlcNAc
# Summary of the method: as §1
# [32] = target: Fuc(a1-3)[Gal(b1-4)]GlcNAc(b1-4)Gal(b1-4)[Fuc(a1-3)]GlcNAc(b1-4)Gal(b1-4)[Fuc(a1-3)]GlcNAc
# Summary of the method: as §1
# [33] = target: Fuc(a1-3)[Gal(b1-4)]GlcNAc6S
# Summary of the method: as §1
# [34] = target: Fuc(a1-3)[Gal3S(b1-4)]Glc6S
# Summary of the method: as §1
# [35] = target: Fuc(a1-3)[Gal3S(b1-4)]GlcNAc
# Summary of the method: as §1
# [36] = target: Fuc(a1-3)[Gal3S(b1-4)]GlcNAc6S
# Summary of the method: as §1
# [37] = target: Fuc(a1-3)[GalNAc(b1-4)]GlcNAc
# Summary of the method: as §1
# Fuc(a1-4)GlcNAc = target: Fuc(a1-4)GlcNAc
# Summary of the method: as §1
# Fuc(b1-3)GlcNAc = target: Fuc(b1-3)GlcNAc
# Summary of the method: as §1
# Gal(a1-2)Gal = target: Gal(a1-2)Gal
# Summary of the method: as §1
# Gal(a1-3)Gal = target: Gal(a1-3)Gal
# Summary of the method: as §1
# Gal(a1-3)Gal(b1-3)GlcNAc = target: Gal(a1-3)Gal(b1-3)GlcNAc
# Summary of the method: as §1
# Gal(a1-3)Gal(b1-4)Glc = target: Gal(a1-3)Gal(b1-4)Glc
# Summary of the method: as §1
# Gal(a1-3)Gal(b1-4)GlcNAc = target: Gal(a1-3)Gal(b1-4)GlcNAc
# Summary of the method: as §1
# [38] = target: Gal(a1-3)Gal(b1-4)[Fuc(a1-3)]GlcNAc
# Summary of the method: as §1
# Gal(a1-3)GalNAc = target: Gal(a1-3)GalNAc
# Summary of the method: as §1
# [39] = target: Gal(a1-3)[Gal(a1-4)]Gal(b1-4)GlcNAc
# Summary of the method: as §1
# Gal(a1-4)Gal(b1-4)Glc = target: Gal(a1-4)Gal(b1-4)Glc
# Summary of the method: as §1
# Gal(a1-4)Gal(b1-4)GlcNAc = target: Gal(a1-4)Gal(b1-4)GlcNAc
# Summary of the method: as §1
# Gal(a1-4)GlcNAc = target: Gal(a1-4)GlcNAc
# Summary of the method: as §1
# Gal(a1-6)Glc = target: Gal(a1-6)Glc
# Summary of the method: as §1
binder,measurement,setting,value
"Regenerating Gene I (Homo sapiens), P05451 (protein) MAQTSSYFMLISCLMFLSQSQGQEAQTELPQARISCPEGTNAYRSYCYYFNEDRETWVDADLYCQNMNSGNLVSVLTQAEGAFVASLIKESGTDDFNVWIGLHDPKKNRRWHWSSGSLVSYKSWGIGAPSSVNPGYCVSLTSSTGFQKWKDVPCEDKFSFVCKFKN",glycan array binding signal (z-score),Fuc(a1-2)Gal,-0.366
same,glycan array binding signal (z-score),Fuc(a1-2)Gal(b1-3)GalNAc,0.019
same,glycan array binding signal (z-score),[1],-0.459
same,glycan array binding signal (z-score),[2],-0.561
same,glycan array binding signal (z-score),[3],-0.17
same,glycan array binding signal (z-score),Fuc(a1-2)Gal(b1-3)GlcNAc,0.417
same,glycan array binding signal (z-score),[4],-0.32
same,glycan array binding signal (z-score),[5],-0.042
same,glycan array binding signal (z-score),Fuc(a1-2)Gal(b1-4)Glc,-0.035
same,glycan array binding signal (z-score),Fuc(a1-2)Gal(b1-4)Glc6S,-0.292
same,glycan array binding signal (z-score),Fuc(a1-2)Gal(b1-4)GlcNAc,-0.126
same,glycan array binding signal (z-score),[6],-0.231
same,glycan array binding signal (z-score),[7],-0.076
same,glycan array binding signal (z-score),[8],-0.425
same,glycan array binding signal (z-score),[9],-0.293
same,glycan array binding signal (z-score),[10],-0.347
same,glycan array binding signal (z-score),[11],-0.093
same,glycan array binding signal (z-score),Fuc(a1-2)Gal6S(b1-4)Glc,0.769
same,glycan array binding signal (z-score),[12],0.768
same,glycan array binding signal (z-score),[13],-0.438
same,glycan array binding signal (z-score),Fuc(a1-2)[Gal(a1-3)]Gal,0.299
same,glycan array binding signal (z-score),[14],-0.238
same,glycan array binding signal (z-score),[15],-0.464
same,glycan array binding signal (z-score),[16],-0.542
same,glycan array binding signal (z-score),[17],-0.077
same,glycan array binding signal (z-score),[18],-0.144
same,glycan array binding signal (z-score),[19],0.153
same,glycan array binding signal (z-score),[20],-0.479
same,glycan array binding signal (z-score),[21],-0.443
same,glycan array binding signal (z-score),[22],0.007
same,glycan array binding signal (z-score),[23],-0.237
same,glycan array binding signal (z-score),[24],-0.038
same,glycan array binding signal (z-score),[25],-0.444
same,glycan array binding signal (z-score),Fuc(a1-3)GlcNAc,1.09
same,glycan array binding signal (z-score),[26],0.685
same,glycan array binding signal (z-score),[27],-0.256
same,glycan array binding signal (z-score),[28],-0.598
same,glycan array binding signal (z-score),[29],-0.109
same,glycan array binding signal (z-score),[30],-0.332
same,glycan array binding signal (z-score),[31],-0.391
same,glycan array binding signal (z-score),[32],0.355
same,glycan array binding signal (z-score),[33],1.18
same,glycan array binding signal (z-score),[34],0.607
same,glycan array binding signal (z-score),[35],0.5
same,glycan array binding signal (z-score),[36],0.245
same,glycan array binding signal (z-score),[37],0.315
same,glycan array binding signal (z-score),Fuc(a1-4)GlcNAc,-0.468
same,glycan array binding signal (z-score),Fuc(b1-3)GlcNAc,-0.496
same,glycan array binding signal (z-score),Gal(a1-2)Gal,0.089
same,glycan array binding signal (z-score),Gal(a1-3)Gal,0.326
same,glycan array binding signal (z-score),Gal(a1-3)Gal(b1-3)GlcNAc,-0.393
same,glycan array binding signal (z-score),Gal(a1-3)Gal(b1-4)Glc,-0.129
same,glycan array binding signal (z-score),Gal(a1-3)Gal(b1-4)GlcNAc,-0.132
same,glycan array binding signal (z-score),[38],0.318
same,glycan array binding signal (z-score),Gal(a1-3)GalNAc,-0.284
same,glycan array binding signal (z-score),[39],-0.405
same,glycan array binding signal (z-score),Gal(a1-4)Gal(b1-4)Glc,3.58
same,glycan array binding signal (z-score),Gal(a1-4)Gal(b1-4)GlcNAc,0.01
same,glycan array binding signal (z-score),Gal(a1-4)GlcNAc,0.102
same,glycan array binding signal (z-score),Gal(a1-6)Glc,-0.497

# From the supplement of paper PMC8728848
